The source gives no read counts; variants with many changes may rest on few reads.
B1: LINE1-mini (parent)
chain: GGCAGAGCUCAACACAGCGUGGCAAAGUGGCUGUGGCUAGACUGCC

Variants of: B1
Assay: self-cleavage, relative activity (ratio to wild type); higher = more cleavage; in vitro, sequencing; the parent is a self-cleaving ribozyme
In the case of A6G C13A C15U C31U U34A, the self-cleavage is reported as 0.11. G1U A4G C15A A16C U20G C31G U32A G44U showed a self-cleavage of 0.09. A4G C10U A26U C46G showed a self-cleavage of 0.17. A6G G19A C23U G27A U43C showed a self-cleavage of 0.05. Variant G2A C3A A39C has a self-cleavage of 1.06. In the case of C3U C18A A39C, the self-cleavage is reported as 0.02. G21A C42G G44C gave a self-cleavage of 0.08. C13A A16C G30C U43G gave a self-cleavage of 0. U20A G33C G36A G44A gave a self-cleavage of 0.03. In the case of C23A G27U G30U G33U, the self-cleavage is reported as 0.23. C3A A16G G30C G35A A39C gave a self-cleavage of 0.08. For G1U A11C G19C C23U G30A G44A, the self-cleavage was 0.01. Work on G1U A26C G27U yielded a self-cleavage of 0.31. Variant A11U A14U C15G G30A A41U has a self-cleavage of 0.01. In the case of C8U U20A C42U, the self-cleavage is reported as 0.34. A14G A25G A26U G40C C46U gave a self-cleavage of 0.01. With A6C A14U G17C G21U G29C the self-cleavage was 0.03. For C10A A25U A26C, the self-cleavage was 0.11. Work on G5A U9G C23U G33A G40A yielded a self-cleavage of 0.13. In the case of C10A A14C C18A G36C A39U, the self-cleavage is reported as 0.01. C10A A14C U34A U43C gave a self-cleavage of 0.02. C3G C18U G30A showed a self-cleavage of 0.17. Variant G17C G36A G44A has a self-cleavage of 0.03. Variant G19A A25C G35U has a self-cleavage of 0.02. Variant C3U C15U C23G G29A G35U has a self-cleavage of 0.23. For C8G A11G A26G G27U, the self-cleavage was 0.04. C13A C18U G30U G36A A41G showed a self-cleavage of 0.01. With A11U A16G A26U G27U the self-cleavage was 0.01. Variant C13U U38G A39U has a self-cleavage of 0.04. G19C U32G U34C showed a self-cleavage of 0.08. Variant G1U G5A G21U G30U G40U has a self-cleavage of 0.02. A11U C13U A26U C46A gave a self-cleavage of 0.05. Variant A14C G22U G27A G36A G44C C45A has a self-cleavage of 0.01. Variant G1C C10A C18A G29C A41G has a self-cleavage of 0.01. In the case of G2A A14G G21U C31U, the self-cleavage is reported as 0.1. C10U U38A U43A gave a self-cleavage of 0.03. Work on G2C G22A C23G U28G U32C U38A U43A yielded a self-cleavage of 0.01. In the case of G2U C3A A4G C13A, the self-cleavage is reported as 0.04. In the case of G1C G2A C8A C10G C37G C42A U43C, the self-cleavage is reported as 0.01. Work on G1C G29A C46U yielded a self-cleavage of 0.38. Variant G7C U9A G19U U32C C46A has a self-cleavage of 0.03. C8A G22U A41U gave a self-cleavage of 1.24. In the case of C3G C15A G36A C37U, the self-cleavage is reported as 0.15. Work on C10U G17A U20C G40U yielded a self-cleavage of 0.02. A14G C15G C23A A26G C45A gave a self-cleavage of 0.02. G2U C10G A26G C37A A39G G44U gave a self-cleavage of 0.01. With C3A C37U A39G the self-cleavage was 0.03. Work on A4U C15A G29A G30U yielded a self-cleavage of 0.06. With C8A C10U U32G the self-cleavage was 0.11. Variant A16C G21C G22U U32G A41U has a self-cleavage of 0.15. For C10U U32A U34A, the self-cleavage was 0.01. Variant A4U U9C A12G G29A has a self-cleavage of 0. A11C A24C C31A G35U G36C gave a self-cleavage of 0.01. With A25U U32C C45G the self-cleavage was 0.07. G1C G2A G35A C37A gave a self-cleavage of 0.03. Variant G2A U9C C13A G44U has a self-cleavage of 0. A11U G17U A26G showed a self-cleavage of 0.01. Work on C3A G36C A39G yielded a self-cleavage of 0.23. With G1C C3A G36C the self-cleavage was 0.66. C3A U9A A24G G36U gave a self-cleavage of 0.61. A4G C8A U9G gave a self-cleavage of 0.14. Variant G22A C31A G35U has a self-cleavage of 0.01. Work on C8U A24U G30C yielded a self-cleavage of 0.09. For C18G G19C G30A U43G, the self-cleavage was 0. In the case of G5A C15A G22A U32C, the self-cleavage is reported as 0.02. For A4G A14C G30C, the self-cleavage was 0.03. G7U C8G A16G G35C C45U gave a self-cleavage of 0.08. For A6U U32G U34C, the self-cleavage was 0.03. A12G G21U G29U G30A gave a self-cleavage of 0.03. U28A G30A U32A showed a self-cleavage of 0.61. Work on G2U C3G G29A C31U G36U A39C yielded a self-cleavage of 0.02. C8G C15A C18G G40C A41C gave a self-cleavage of 0.01. In the case of G19U U20A A41C, the self-cleavage is reported as 0.02. For G1A U28G C45A, the self-cleavage was 0.29. For A16U G22A C23A A26C, the self-cleavage was 0.03. In the case of G7A C13U A24C G44A, the self-cleavage is reported as 0.21. G7U G29U U34A gave a self-cleavage of 0.35. With A12U G30A G40A the self-cleavage was 0.08. In the case of G22U G27C G29A U32A G33U C45G, the self-cleavage is reported as 0.02. With C10A C37A C45G the self-cleavage was 0.01. Work on C18U G21U U43A yielded a self-cleavage of 0.04. With G7C C23G C31G the self-cleavage was 0.01. A6C U34G C42A gave a self-cleavage of 0.03. For G7A C23G A26C G29U, the self-cleavage was 0.03. For C10A A14G A24C G35U U38G G40A, the self-cleavage was 0. With G5C G17C U43C the self-cleavage was 0.03. In the case of C10A G27U G35U G36U A39G, the self-cleavage is reported as 0.01. In the case of C8U C15A G27C, the self-cleavage is reported as 0.06. C18G G19U A26U showed a self-cleavage of 0.23. Work on C15U C23U G44C yielded a self-cleavage of 0.37. In the case of C15G A16G U32A, the self-cleavage is reported as 0.2. In the case of A11G A12U U28A, the self-cleavage is reported as 0.01. In the case of U9A G36U C42A, the self-cleavage is reported as 0.08. In the case of C3G C18G G22A, the self-cleavage is reported as 0.1. Work on A6C G7C C23U G44A yielded a self-cleavage of 0.13. In the case of G2U A6G U9A U32A G33A, the self-cleavage is reported as 0.03. With C8A G19A G22A the self-cleavage was 0.25. Work on C8A G19U G33U yielded a self-cleavage of 0.03. C3A U9C C31G gave a self-cleavage of 0.05. Work on A4G A6G A14U C31U G35A yielded a self-cleavage of 0.02. A25U A41C C45G showed a self-cleavage of 0.1. With G2U A24C G36U the self-cleavage was 0.15. Variant C8U G33U G36U C37U has a self-cleavage of 0.03. A6U C8G C18G showed a self-cleavage of 0.08. Work on C3U G30C G33A A41G yielded a self-cleavage of 0.05. In the case of G1C C3A C8G C42G, the self-cleavage is reported as 0.01. C3G G5A C10U G33U C42A U43A gave a self-cleavage of 0.03. Work on C13A C15A A26U C42U yielded a self-cleavage of 0.01. A16C C18U G22U G33C G35U U43G showed a self-cleavage of 0. In the case of U9G C37U U43A C46U, the self-cleavage is reported as 0.19. With G2A A12G G19U G44U the self-cleavage was 0.02. In the case of A11U G22U G29C C42G, the self-cleavage is reported as 0. A4C U9G A16U C37A gave a self-cleavage of 0.01. For C13A A14C C42G, the self-cleavage was 0.04. In the case of A24C A25G C42G, the self-cleavage is reported as 0.07. With G1C A4C C42U the self-cleavage was 0.05. G2C C13U A25G gave a self-cleavage of 0.06. In the case of G21U C37A U43G, the self-cleavage is reported as 0. A12U C23A G29U G33C G40A gave a self-cleavage of 0.03. In the case of G2U A14U A26U, the self-cleavage is reported as 0.05. In the case of C8G A12U G36C, the self-cleavage is reported as 0.13. U9G C10U A12C C31G U38A gave a self-cleavage of 0. Work on G1U G21U A26G C45A yielded a self-cleavage of 0.56. C8A A12U G19C G33U gave a self-cleavage of 0.1. A4U C23U U28G C31U A39U C46G showed a self-cleavage of 0.04. Variant G17U C18U G27C has a self-cleavage of 0.05. Variant C3U A4U C23U C37U has a self-cleavage of 0.08. With G2A C18G G21U the self-cleavage was 0.23. Variant A6U A14U G17C G22A U34A has a self-cleavage of 0.11. For C8A A11U G19U U32G G40C, the self-cleavage was 0.01. Work on G2U U9A G33C G35C yielded a self-cleavage of 0.02. A14C C15U U28A G30U showed a self-cleavage of 0.06. A4G A11G G17A A24U gave a self-cleavage of 0.02. Variant G1U G7A U9G G22A G27U has a self-cleavage of 0.04. With U9G A12U C13G G33A the self-cleavage was 0.08. Work on C10U C15U G30U yielded a self-cleavage of 0.08. Variant A4C G7C C18U G30A has a self-cleavage of 0.33. For C23A G36U C46U, the self-cleavage was 0.08. G1U C31U A39G gave a self-cleavage of 0.04. With C8G A12C C18U G44U the self-cleavage was 0.01. For G5A G19A G29U C42U C46G, the self-cleavage was 0.41. Variant C10G C15A A16U C42U C46G has a self-cleavage of 0. Variant A16G U32G U34C has a self-cleavage of 0.01. With G17U G35C C42U the self-cleavage was 0.03. In the case of G1A G2U G5C G35A, the self-cleavage is reported as 0.06. For G5A A12U U34G A41C, the self-cleavage was 0. G21C A39U G40A C45G showed a self-cleavage of 0.02. With A11C G36A C42U the self-cleavage was 0.02. U9C G22C C23A gave a self-cleavage of 0.01. Variant G2C A4U A12C G19A G22C C23A A26C has a self-cleavage of 0.01. Work on A11U C18G C37G G40U yielded a self-cleavage of 0.01. For A4U C10A U28C C37G C45U, the self-cleavage was 0.01. Work on C10A C23A G36A yielded a self-cleavage of 0.04. With C8U A16G U28C the self-cleavage was 0.11. In the case of A11U C13U C42G, the self-cleavage is reported as 0.02. With G19A A26U G29C the self-cleavage was 0.18. Variant G2U U20G A24U A25U C31A has a self-cleavage of 0.05. G5C C31U G33A C45U showed a self-cleavage of 0.05. G1A C3A C15A G36A showed a self-cleavage of 1.64. Variant A6U C15G U38C has a self-cleavage of 0.02. A14G G17A G19A A24C G35C A39C showed a self-cleavage of 0.01. With C3G A24C G27U the self-cleavage was 0.05. With A4G G7C G29C the self-cleavage was 0.04. Variant G1U A12C C13G G33A G40U has a self-cleavage of 0. In the case of C3A C18G G44U, the self-cleavage is reported as 1.54. A6G G17C A41C C42G gave a self-cleavage of 0.03. In the case of C10U A16U A24G G27C U38C, the self-cleavage is reported as 0.02.
